The supplement of paper PMC7125110
± gives the standard error. Variants at the floor of the assay are shown more often than the library holds them.

B1: glmS ribozyme (parent)
chain: AUAAAAGCGCCAGAACUACAGAAAUGUAGUUGACGAGGAGGAGGUUUAUCGAAUUUUCGGCGGAUGCCUCCAAA

Tests used:
Details in all cases: with glucosamine-6-phosphate
[1] = variants of: B1; test: self-cleavage kobs at 40 uM GlcN6P; higher = faster cleavage; RNA array
Method in brief: (§1)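 Sequenced MiSeq chips were the platform: E. coli RNA polymerase transcribed barcoded ribozyme variants on them in situ, and a hybridised Cy3 probe tracked these at 37 °C. After glucosamine-6-phosphate (40 μM to 10 mM) in HEPES/KCl/Mg(OAc)2 buffer was flowed in, tiles were imaged over ~14 h. Signals normalised to baseline and to non-cleaving reference variants were reduced to per-tile medians and fit to one- or two-exponential decays to obtain kobs. kcat and KM were derived through weighted Michaelis–Menten fits across concentrations.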

[2] = variants of: B1; test: self-cleavage kobs at 160 uM GlcN6P; higher = faster cleavage; RNA array
Method in brief: as §1

[3] = variants of: B1; test: self-cleavage kobs at 10000 uM GlcN6P; higher = faster cleavage; RNA array
Method in brief: as §1

[4] = variants of: B1; test: self-cleavage kobs at 640 uM GlcN6P; higher = faster cleavage; RNA array
Method in brief: as §1

[5] = variants of: B1; test: self-cleavage kobs at 2500 uM GlcN6P; higher = faster cleavage; RNA array
Method in brief: as §1

Variant	self-cleavage kobs at 40 uM GlcN6P [1]	self-cleavage kobs at 160 uM GlcN6P [2]	self-cleavage kobs at 10000 uM GlcN6P [3]	self-cleavage kobs at 640 uM GlcN6P [4]	self-cleavage kobs at 2500 uM GlcN6P [5]
G37A U56A	1.92e-05 ± 6.8e-06 s⁻¹	4.84e-05 ± 1.8e-05 s⁻¹	0.000962 ± 0.00011 s⁻¹	–	–
A15U C50A	< 1e-05 s⁻¹	< 1e-05 s⁻¹	–	–	–
A33C G63A	< 1e-05 s⁻¹	–	< 1e-05 s⁻¹	–	–
G32A G38A	< 1e-05 s⁻¹	–	–	–	–
C16A G29C	0.000114 ± 1.3e-05 s⁻¹	0.000215 ± 4.5e-05 s⁻¹	0.00391 ± 0.00075 s⁻¹	0.000949 ± 0.00011 s⁻¹	0.00217 ± 0.0003 s⁻¹
G37A G38C C67U	< 1e-05 s⁻¹	–	–	–	–
C16A A39U G51U	< 1e-05 s⁻¹	–	–	–	–
A36G G40A	< 1e-05 s⁻¹	< 1e-05 s⁻¹	< 1e-05 s⁻¹	< 1e-05 s⁻¹	–
G35U G38A	< 1e-05 s⁻¹	< 1e-05 s⁻¹	< 1e-05 s⁻¹	–	–
G29C A36U	< 1e-05 s⁻¹	–	–	< 1e-05 s⁻¹	–
A33U C71G	< 1e-05 s⁻¹	–	–	–	–
G32U A33C G59U	< 1e-05 s⁻¹	< 1e-05 s⁻¹	–	< 1e-05 s⁻¹	–
A15G G38A C61U	< 1e-05 s⁻¹	–	–	–	–
A15G U30G C70U	0.000184 ± 5.6e-05 s⁻¹	–	0.0318 ± 0.013 s⁻¹	0.00102 ± 0.00026 s⁻¹	–
C16G A36U U45G C67A	< 1e-05 s⁻¹	–	–	–	–
A33G A48G	< 1e-05 s⁻¹	< 1e-05 s⁻¹	< 1e-05 s⁻¹	< 1e-05 s⁻¹	< 1e-05 s⁻¹
G32C A39C	< 1e-05 s⁻¹	–	–	–	–
G37U A48U U56G	< 1e-05 s⁻¹	< 1e-05 s⁻¹	–	< 1e-05 s⁻¹	< 1e-05 s⁻¹
A36G G38A G44C	< 1e-05 s⁻¹	–	< 1e-05 s⁻¹	–	–
A15U G51A	< 1e-05 s⁻¹	–	< 1e-05 s⁻¹	< 1e-05 s⁻¹	< 1e-05 s⁻¹
G37U U57A C71U	< 1e-05 s⁻¹	–	< 1e-05 s⁻¹	–	–
U31G U54G	0.000298 ± 5.4e-05 s⁻¹	0.000493 ± 8.5e-05 s⁻¹	0.0119 ± 0.0031 s⁻¹	0.00263 ± 0.00063 s⁻¹	0.00445 ± 0.00094 s⁻¹
A36C G43A	< 1e-05 s⁻¹	< 1e-05 s⁻¹	< 1e-05 s⁻¹	< 1e-05 s⁻¹	–
U30C G38U C61U	< 1e-05 s⁻¹	–	–	–	–
C16U U49C	< 1e-05 s⁻¹	< 1e-05 s⁻¹	–	< 1e-05 s⁻¹	< 1e-05 s⁻¹

Variant	self-cleavage kobs at 40 uM GlcN6P [1]	self-cleavage kobs at 160 uM GlcN6P [2]	self-cleavage kobs at 10000 uM GlcN6P [3]	self-cleavage kobs at 640 uM GlcN6P [4]	self-cleavage kobs at 2500 uM GlcN6P [5]
C34U G60U	< 1e-05 s⁻¹	< 1e-05 s⁻¹	< 1e-05 s⁻¹	< 1e-05 s⁻¹	< 1e-05 s⁻¹
A33C G62C U65C	< 1e-05 s⁻¹	–	–	–	< 1e-05 s⁻¹
A33C A42C	< 1e-05 s⁻¹	< 1e-05 s⁻¹	< 1e-05 s⁻¹	< 1e-05 s⁻¹	–
A15C G44A A53G	< 1e-05 s⁻¹	–	–	–	–
A14U G51A U57C G60U A64G U65G	< 1e-05 s⁻¹	–	–	–	–
U31A A42C U46A	< 1e-05 s⁻¹	–	–	–	–
U31C G37U	< 1e-05 s⁻¹	–	–	< 1e-05 s⁻¹	–
G35A G63U	< 1e-05 s⁻¹	< 1e-05 s⁻¹	< 1e-05 s⁻¹	< 1e-05 s⁻¹	< 1e-05 s⁻¹
G38U A48C	< 1e-05 s⁻¹	< 1e-05 s⁻¹	–	–	< 1e-05 s⁻¹
G32C U56A C71A	< 1e-05 s⁻¹	–	3.09e-05 ± 1.5e-05 s⁻¹	–	–
G29C A64C	< 1e-05 s⁻¹	–	–	< 1e-05 s⁻¹	–
U31C G41U U65A	< 1e-05 s⁻¹	–	–	–	–
G32C G37C A48U G59C	< 1e-05 s⁻¹	–	–	–	–
G32U A64C	< 1e-05 s⁻¹	< 1e-05 s⁻¹	< 1e-05 s⁻¹	< 1e-05 s⁻¹	< 1e-05 s⁻¹
A33U A42C	< 1e-05 s⁻¹	< 1e-05 s⁻¹	< 1e-05 s⁻¹	< 1e-05 s⁻¹	< 1e-05 s⁻¹
A33C G35U	< 1e-05 s⁻¹	< 1e-05 s⁻¹	< 1e-05 s⁻¹	< 1e-05 s⁻¹	< 1e-05 s⁻¹
A39G G60U	< 1e-05 s⁻¹	–	–	–	–
G35A G66A	< 1e-05 s⁻¹	–	< 1e-05 s⁻¹	–	–
A15G A36G	< 1e-05 s⁻¹	< 1e-05 s⁻¹	–	< 1e-05 s⁻¹	–
A15G G29C C61G	< 1e-05 s⁻¹	–	< 1e-05 s⁻¹	–	–
G29C C61A	< 1e-05 s⁻¹	–	–	–	–
G29A U49C	< 1e-05 s⁻¹	–	< 1e-05 s⁻¹	–	–
U31A G40A A42U	< 1e-05 s⁻¹	–	–	–	–
C34U C58G C68U	0.000265 ± 9.2e-05 s⁻¹	–	–	–	–
A15C G59C	< 1e-05 s⁻¹	< 1e-05 s⁻¹	< 1e-05 s⁻¹	< 1e-05 s⁻¹	< 1e-05 s⁻¹

Variant	self-cleavage kobs at 40 uM GlcN6P [1]	self-cleavage kobs at 160 uM GlcN6P [2]	self-cleavage kobs at 10000 uM GlcN6P [3]	self-cleavage kobs at 640 uM GlcN6P [4]	self-cleavage kobs at 2500 uM GlcN6P [5]
G29C A36G U47A A64G	< 1e-05 s⁻¹	–	< 1e-05 s⁻¹	< 1e-05 s⁻¹	–
G29A C34U U47G A48G C67G	0.000265 ± 0.0001 s⁻¹	–	7.2e-05 ± 3.2e-05 s⁻¹	–	–
G37C A42U C70A	< 1e-05 s⁻¹	–	–	–	–
A15C C61U C67G	< 1e-05 s⁻¹	–	< 1e-05 s⁻¹	–	–
G38A G41U C67U C70G	< 1e-05 s⁻¹	–	–	–	< 1e-05 s⁻¹
G37U G40U C67G	< 1e-05 s⁻¹	–	–	< 1e-05 s⁻¹	–
G38A U46C	< 1e-05 s⁻¹	< 1e-05 s⁻¹	–	< 1e-05 s⁻¹	< 1e-05 s⁻¹
U30C U57G	< 1e-05 s⁻¹	–	–	–	–
U31G C61G	< 1e-05 s⁻¹	< 1e-05 s⁻¹	< 1e-05 s⁻¹	< 1e-05 s⁻¹	–
A15C G63C	< 1e-05 s⁻¹	< 1e-05 s⁻¹	< 1e-05 s⁻¹	< 1e-05 s⁻¹	–
A36C A48G	< 1e-05 s⁻¹	–	< 1e-05 s⁻¹	–	–
G29U G41A	< 1e-05 s⁻¹	–	0.000164 ± 4e-05 s⁻¹	5.62e-05 ± 1.8e-05 s⁻¹	0.000155 ± 3.1e-05 s⁻¹
A39C U49G	< 1e-05 s⁻¹	< 1e-05 s⁻¹	6.91e-05 ± 9.5e-06 s⁻¹	–	4.21e-05 ± 1.9e-05 s⁻¹
C16U C34A	< 1e-05 s⁻¹	–	–	–	–
A15G A39U G59C G63A G66A	< 1e-05 s⁻¹	–	–	–	< 1e-05 s⁻¹
U31C C61G	< 1e-05 s⁻¹	–	< 1e-05 s⁻¹	–	–
G35C U45C	< 1e-05 s⁻¹	< 1e-05 s⁻¹	–	< 1e-05 s⁻¹	< 1e-05 s⁻¹
G32C G35C A42G C50U U69G	< 1e-05 s⁻¹	–	–	–	–
A15C G43C	< 1e-05 s⁻¹	< 1e-05 s⁻¹	< 1e-05 s⁻¹	< 1e-05 s⁻¹	< 1e-05 s⁻¹
C34G A36C	< 1e-05 s⁻¹	< 1e-05 s⁻¹	< 1e-05 s⁻¹	< 1e-05 s⁻¹	–
G29U G38A G44A U47G	< 1e-05 s⁻¹	–	< 1e-05 s⁻¹	–	–
A33U U57A G62U	< 1e-05 s⁻¹	–	< 1e-05 s⁻¹	–	< 1e-05 s⁻¹
G35C G41A U55A	< 1e-05 s⁻¹	–	–	–	–
A39C G60C C68U	< 1e-05 s⁻¹	–	–	–	–
U31A U55G	0.000331 ± 5.6e-05 s⁻¹	0.000659 ± 9.3e-05 s⁻¹	0.0123 ± 0.0044 s⁻¹	0.0036 ± 0.00064 s⁻¹	0.00546 ± 0.0012 s⁻¹

Variant	self-cleavage kobs at 40 uM GlcN6P [1]	self-cleavage kobs at 160 uM GlcN6P [2]	self-cleavage kobs at 10000 uM GlcN6P [3]	self-cleavage kobs at 640 uM GlcN6P [4]	self-cleavage kobs at 2500 uM GlcN6P [5]
U31A A39G	0.000491 ± 7.7e-05 s⁻¹	0.00202 ± 0.00038 s⁻¹	0.0363 ± 0.0095 s⁻¹	0.00495 ± 0.0018 s⁻¹	0.0245 ± 0.0078 s⁻¹
G35C A48G A52C C70G	< 1e-05 s⁻¹	–	–	–	–
G29U A42C G59C	< 1e-05 s⁻¹	–	–	–	–
C34G C50A A53G C71U	< 1e-05 s⁻¹	–	–	–	–
C16G U30C G37A G62U	< 1e-05 s⁻¹	< 1e-05 s⁻¹	–	–	–
A15U A52C C70U	< 1e-05 s⁻¹	–	–	–	–
G38A U46C A53C U54C C68A	< 1e-05 s⁻¹	–	< 1e-05 s⁻¹	–	–
C16G G44U	< 1e-05 s⁻¹	< 1e-05 s⁻¹	2.26e-05 ± 1e-05 s⁻¹	–	–
G35C U47C C50A	< 1e-05 s⁻¹	–	< 1e-05 s⁻¹	–	–
A15U C61U C70U	< 1e-05 s⁻¹	–	–	–	–
A39G U54G	0.00177 ± 0.00036 s⁻¹	0.00227 ± 0.00056 s⁻¹	–	0.00627 ± 0.0015 s⁻¹	0.0305 ± 0.013 s⁻¹
U31C G35U C70U	< 1e-05 s⁻¹	–	–	–	–
A15C U57A	< 1e-05 s⁻¹	< 1e-05 s⁻¹	–	–	–
C34A U56G G59A	< 1e-05 s⁻¹	–	< 1e-05 s⁻¹	–	–
G29U G43A G51U C71G	< 1e-05 s⁻¹	–	< 1e-05 s⁻¹	–	–
U31A C61A A64U	< 1e-05 s⁻¹	–	< 1e-05 s⁻¹	–	–
C34U A36G U45G	< 1e-05 s⁻¹	–	< 1e-05 s⁻¹	< 1e-05 s⁻¹	< 1e-05 s⁻¹
A36G U45C U56A	< 1e-05 s⁻¹	–	–	–	–
G32U G38C C50U	< 1e-05 s⁻¹	–	< 1e-05 s⁻¹	–	–
C34U A52G	< 1e-05 s⁻¹	< 1e-05 s⁻¹	< 1e-05 s⁻¹	–	–
C34G U45G	< 1e-05 s⁻¹	< 1e-05 s⁻¹	< 1e-05 s⁻¹	< 1e-05 s⁻¹	–
A33G A36U G60C	< 1e-05 s⁻¹	–	< 1e-05 s⁻¹	–	–
U30A G59C	< 1e-05 s⁻¹	–	< 1e-05 s⁻¹	< 1e-05 s⁻¹	< 1e-05 s⁻¹
U30G C34U	< 1e-05 s⁻¹	< 1e-05 s⁻¹	–	< 1e-05 s⁻¹	< 1e-05 s⁻¹
G35U U54G	< 1e-05 s⁻¹	< 1e-05 s⁻¹	–	–	< 1e-05 s⁻¹
